Data from patent EP4792830A2.

Molecular target: endogenous TFPI in human plasma (human), P10646
Test: cell-based or functional assay

| Dilute PT EC50 [pM] | EC50 (dilute prothrombin time, clotting time) [pM] | TGA Velocity Index at 20 nM | Binder |
| --- | --- | --- | --- |
| 440 | 440 |  | hz4F36 (antibody, human IgG4 S228P, kappa) heavy: EVQLVESGGGLVKPGGSLRLSCAASGFTFSNYAMSWVRQTPEKRLEWVATISRSGSYSYFPDSVQGRFTISRDNAKNSLYLQMNSLRAEDTAVYYCARLGGYDEGDAMDSWGQGTTVTVSSASTKGPSVFPLAPCSRSTSESTAALGCLVKDYFPEPVTVSWNSGALTSGVHTFPAVLQSSGLYSLSSVVTVPSSSLGTKTYTCNVDHKPSNTKVDKRV[omitted - human IgG4 Fc with S228P (EU numbers)] light: DIVMTQTPLSLSVTPGQPASISCKSSQSLLESDGKTYLNWYLQKPGQSPQLLIYLVSILDSGVPDRFSGSGSGTDFTLKISRVEAEDVGVYYCLQATHFPQTFGGGTKVEIKRTVAAPSVFIFPPSDEQLKSGTASVVCLLNNFYPREAKVQWKVDNALQSGNSQESVTEQDSKDSTYSLSSTLTLSKADYEKHKVYACEVTHQGLSSPVTKSFNRGEC |
|  |  | 18.6 | TFPI-26 (antibody, human IgG1, lambda) heavy: [omitted - about 100 residues]NGAAAAWDYWGQGTLVTVSSASTKGPSVFPLAPSSKSTSGGTAALGCLVKDYFPEPVTVSWNSGALTSGVHTFPAVLQSSGLYSLSSVVTVPSSSLGTQTYICNVNHKPSNTKVDKKVEPKSCDKTHTCPPCPAPEAAGAPSVFLFPPKPKDTLMISRTPEVTCVVVDVSHEDPEVKFNWYVDGVEVHNAKTKPREEQYNSTYRVVSVLTVLHQDWLNGKEYKCKVSNKALPAPIEKTISKAKGQPREPQVYTLPPSREEMTKNQVSLTCLVKGFYPSDIAVEWESNGQPENNYKTTPPVLDSDGSFFLYSKLTVDKSRWQQGNVFSCSVMHEALHNHYTQKSLSLSPG light: QSVLTQPPSLSGAPGQRVTISCTGSSSNLGADYDVQWYQQLPGTAPKLLIFGNNNRPSGVPDRFSGSRSGTSASLAITGLQAEDEANYYCQSYDRSLSGSMVFGGGTKLTVLGQPKAAPSVTLFPPSSEELQANKATLVCLISDFYPGAVTVAWKADSSPVKAGVETTTPSKQSNNKYAASSYLSLTPEQWKSHRSYSCQVTHEGSTVEKTVAPTECS |
